Hit rate of the full screen: of about 420,000 compounds, about 50,000 (12%) were called active. Inconclusive means that the source gave no clear call. Such entries were picked first, then a sample of the others. The call rests on the fitted dose curve; in most records, active means well fitted inhibition curve with a large enough effect; inconclusive means small, poorly fitted or top-dose-only effect; inactive means flat fitted curve, though single readings scatter. No potency is given beside an inconclusive call; the fits are too rough.
Assay: qHTS for Inhibitors of human tyrosyl-DNA phosphodiesterase 1 (TDP1): qHTS in cells in presence of CPT; further: nearly all actives have a fitted effect of over 55% in size
Conditions: chicken DT40 Tdp1-/-;hTDP1 cells + 20 nM CPT, ATP luminescence, 48 h; activity change, negative = growth inhibition: at 46.2 µM (top of the series)
Summary of the method: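 Chicken DT40 Tdp1-/- cells stably complemented with human TDP1 were seeded at 400 cells/well in medium containing 20 nM camptothecin, exposed to pin-transferred compounds, and grown at 37 °C for at least 48 hr. Viability was read as ATP luminescence.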
On the % scale 0 is the no-effect control and ±100 the full control effect; potency means the concentration at half of the fitted maximal effect; tags describe the fitted curve by direction and shape.

SMILES	Potency	activity change, negative = growth inhibition
CCOC(=O)N1CCc2c(sc(NCc3cc(OC)ccc3OC)c2C(=O)Nc2cc(OC)ccc2OC)C1	inconclusive [inhibitor, single point]	
CC1(Cc2ccccc2Cl)C(=O)Nc2cc(-c3ccccc3Cl)ccc21 (stereo not drawn)	inconclusive [inhibitor, single point]	
Cc1ccc(Nc2nc(NCc3ccco3)nc3nccnc23)c(C)c1	inconclusive [inhibitor, single point]	
CCC(C)NC(=O)Cn1c(=O)n(CCCCC(=O)NCc2ccco2)c(=O)c2ccccc21 (stereo not drawn)		inactive: -5.32%
O=C(/C=C/c1ccco1)Nc1ccc(-c2nc3ccccc3[nH]2)cc1		inactive: -0.599%
O=C(CN(C(=O)CCNC(=O)c1ccco1)c1ccccc1)NC1CCCC1		inconclusive: -32% [inhibitor]
Cc1ccc(S(=O)(=O)NCC(=O)N(CC(=O)NCc2ccco2)Cc2ccccc2)cc1		inactive: -6.97%
COC(=O)c1ccc(N/N=C/c2cc([N+](=O)[O-])cc(OC)c2O)cc1		inactive: -19.1%
NC(=O)c1cc(C(=O)c2ccccc2Cl)c[nH]1		inactive: -3.06%
COC(=O)Nc1ccc(S(=O)(=O)N(C)C)cc1	inconclusive [inhibitor, single point]	
COC(=O)[C@@]12C[C@@H](CC(=O)NCC34CC5CC(CC(C5)C3)C4)C(=O)N(Cc3ccccc3)C1=CCC(C)(C)C2	inconclusive [inhibitor, single point]	
CCN(CC)CCNc1oc(-c2ccccc2)nc1S(=O)(=O)c1ccccc1	inconclusive [inhibitor, single point]	
CCC1(C)Cc2c(sc3nnn(CC(=O)Nc4cccc5ccccc45)c(=O)c23)CO1 (stereo not drawn)	inconclusive [inhibitor, partial curve]	
Cc1ccc(CN(C)C(=O)c2ccccc2Sc2ccccc2C#N)cc1	inconclusive [inhibitor, single point]	
CCc1nnc(NC(=O)CCC(=O)N2CCN(c3cc(Cl)ccc3C)CC2)s1	inconclusive [inhibitor, partial curve, poor fit]	
CCOC(=O)c1cc2sc(C)cc2n1CC(=O)NCCc1ccccc1	inconclusive [inhibitor, single point]	
O=C(NNc1nc2c(F)cccc2s1)c1cc(=O)c2ccccc2o1	inconclusive [inhibitor, partial curve, poor fit]	
COc1cc2c(cc1NC(=O)c1ccc(C(C)(C)C)cc1)CCCC2	inconclusive [inhibitor, single point]	

Source: PubChem BioAssay AID686979 (National Center for Advancing Translational Sciences (NCATS), 2013)
